This is an account of results in PubChem BioAssay (NCI).

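Where inhibition never reached the appropriate level, the endpoint shown equals the highest concentration tested. Otherwise, values were interpolated linearly from a five-concentration, 48-hour dose response in 96-well plates. GI50: concentration for 50% inhibition of growth. The concentration for full growth arrest is given as TGI.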 A value given as a limit tells only on which side of the number the result lay.

This assay has as its system NCI-H322M lung. The experiment in a line: DTP human tumour cell line panel, 48 h.
One may read the GI50 as the concentration at which growth is held to half of that of the control. The term TGI denotes the concentration giving total growth inhibition. Higher therefore signals less potent growth arrest. With `CNC(=O)c1cc(N2CCc3cc(NC(=O)Nc4ccc(N5CCN(C)CC5)c(C(F)(F)F)c4)ccc32)ccn1`, the GI50 is 4.08 µM and the TGI amounted to 8.75 µM.
For the molecule `COc1cc(/C=C/C(=O)c2ccc(C)cc2)ccc1Oc1nc(NCCO)nc(N2CCOCC2)n1`, the GI50 is 6.24 µM and the TGI was above 100 µM.
In the same order, the values of `CCCC(=O)NC(c1cccnc1)c1ccc2c(C)ccnc2c1O` (stereo unspecified) are 0.84 µM and above 100 µM.
In the same order, the values of `C[C@]12CC[C@H]3[C@@H](CC=C4C[C@@H](O)CC[C@@]43C)[C@@H]1CC[C@@H]2[C@](C)(O)CCc1cccnc1` are 5.87 µM and above 100 µM.
For `CC(=O)/C(N=Nc1ccc2oc(=O)ccc2c1)=C(\C)O`, the GI50 is 3.54 µM and the TGI turned out to be 17.8 µM.
Regarding `COc1ccc([C@@H]2[C@@H](O)C(=O)N2c2cc(OC)c(OC)c(OC)c2)cc1F`, the GI50 is 0.0984 µM and the concentration for total growth inhibition (TGI) was above 100 µM.
Take `CC1=C2C(=C[C@@](C)(COC(=O)c3ccc(S(=O)(=O)F)cc3)[C@@H]2OC(=O)c2ccc(S(=O)(=O)F)cc2)C(=O)[C@](C)(O)C12CC2`: the GI50 is 1.93 µM and the TGI was 6.27 µM.
Take `CC1=C(C)C(=O)C(Nc2cccc(C(F)(F)F)c2)=C(Cl)C1=O`: the GI50 is 22.7 µM and the TGI was above 100 µM.
